Measurements reported in paper PMC5290273 (Nature Communications, 2017).
No constants are given. Whether binding was seen depends on the method and setting. In cells and extracts the contact can be indirect. Some entries that bind do so weakly or less than the wild type. For some of these results: Sequences can lack the tags named with a protein.

The chains behind the UniProt entries cited, without tags or fusion partners.
UniProt O00472: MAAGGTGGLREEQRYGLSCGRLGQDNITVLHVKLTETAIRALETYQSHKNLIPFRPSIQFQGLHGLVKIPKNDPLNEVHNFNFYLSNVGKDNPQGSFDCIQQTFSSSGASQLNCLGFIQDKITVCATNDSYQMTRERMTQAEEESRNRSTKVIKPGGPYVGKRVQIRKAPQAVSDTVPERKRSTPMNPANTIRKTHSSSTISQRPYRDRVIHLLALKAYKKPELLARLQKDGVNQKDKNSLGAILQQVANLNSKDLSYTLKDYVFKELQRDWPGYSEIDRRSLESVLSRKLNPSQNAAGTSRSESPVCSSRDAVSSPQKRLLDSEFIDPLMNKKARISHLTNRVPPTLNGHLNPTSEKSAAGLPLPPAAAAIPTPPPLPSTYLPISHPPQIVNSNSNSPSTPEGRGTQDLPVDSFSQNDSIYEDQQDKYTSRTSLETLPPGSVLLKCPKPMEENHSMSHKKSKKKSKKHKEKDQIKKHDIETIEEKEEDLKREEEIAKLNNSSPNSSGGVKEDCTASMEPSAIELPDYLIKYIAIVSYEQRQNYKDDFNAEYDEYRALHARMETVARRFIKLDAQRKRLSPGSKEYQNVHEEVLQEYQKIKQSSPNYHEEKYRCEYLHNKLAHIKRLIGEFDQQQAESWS

Tests used:
Experiment in all cases: co-IP
[1] = biological target: T1, FLAG-AFF4 Δ970–1,163 E322H (human) (UniProt Q9UHB7)
T1 sequence: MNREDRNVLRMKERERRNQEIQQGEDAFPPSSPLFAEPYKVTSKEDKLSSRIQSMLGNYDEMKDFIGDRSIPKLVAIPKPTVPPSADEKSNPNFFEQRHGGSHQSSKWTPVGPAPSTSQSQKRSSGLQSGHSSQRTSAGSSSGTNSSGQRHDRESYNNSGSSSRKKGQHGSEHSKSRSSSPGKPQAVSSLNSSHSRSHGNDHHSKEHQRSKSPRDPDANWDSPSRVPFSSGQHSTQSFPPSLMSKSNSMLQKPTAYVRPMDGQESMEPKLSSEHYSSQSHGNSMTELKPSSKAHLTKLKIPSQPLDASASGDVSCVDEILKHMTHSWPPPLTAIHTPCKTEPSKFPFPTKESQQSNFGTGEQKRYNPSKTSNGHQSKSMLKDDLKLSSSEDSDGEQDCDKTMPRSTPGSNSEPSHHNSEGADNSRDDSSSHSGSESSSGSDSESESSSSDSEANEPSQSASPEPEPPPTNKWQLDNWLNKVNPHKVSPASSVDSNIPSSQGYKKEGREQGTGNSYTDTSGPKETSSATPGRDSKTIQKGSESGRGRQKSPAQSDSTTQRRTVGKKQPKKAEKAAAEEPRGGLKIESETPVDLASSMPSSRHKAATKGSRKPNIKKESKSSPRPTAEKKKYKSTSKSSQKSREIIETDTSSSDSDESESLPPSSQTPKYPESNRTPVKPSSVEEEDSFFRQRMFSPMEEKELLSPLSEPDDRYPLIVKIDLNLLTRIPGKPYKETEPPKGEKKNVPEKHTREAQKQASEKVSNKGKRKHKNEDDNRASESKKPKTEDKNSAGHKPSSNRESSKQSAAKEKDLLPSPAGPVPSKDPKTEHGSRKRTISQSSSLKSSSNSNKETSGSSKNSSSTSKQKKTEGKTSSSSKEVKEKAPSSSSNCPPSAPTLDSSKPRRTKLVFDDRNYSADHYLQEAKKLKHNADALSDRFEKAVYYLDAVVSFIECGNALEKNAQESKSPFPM

[2] = biological target: T2, FLAG-AFF4 Δ970–1,163 L320D (human) (UniProt Q9UHB7)
T2 sequence: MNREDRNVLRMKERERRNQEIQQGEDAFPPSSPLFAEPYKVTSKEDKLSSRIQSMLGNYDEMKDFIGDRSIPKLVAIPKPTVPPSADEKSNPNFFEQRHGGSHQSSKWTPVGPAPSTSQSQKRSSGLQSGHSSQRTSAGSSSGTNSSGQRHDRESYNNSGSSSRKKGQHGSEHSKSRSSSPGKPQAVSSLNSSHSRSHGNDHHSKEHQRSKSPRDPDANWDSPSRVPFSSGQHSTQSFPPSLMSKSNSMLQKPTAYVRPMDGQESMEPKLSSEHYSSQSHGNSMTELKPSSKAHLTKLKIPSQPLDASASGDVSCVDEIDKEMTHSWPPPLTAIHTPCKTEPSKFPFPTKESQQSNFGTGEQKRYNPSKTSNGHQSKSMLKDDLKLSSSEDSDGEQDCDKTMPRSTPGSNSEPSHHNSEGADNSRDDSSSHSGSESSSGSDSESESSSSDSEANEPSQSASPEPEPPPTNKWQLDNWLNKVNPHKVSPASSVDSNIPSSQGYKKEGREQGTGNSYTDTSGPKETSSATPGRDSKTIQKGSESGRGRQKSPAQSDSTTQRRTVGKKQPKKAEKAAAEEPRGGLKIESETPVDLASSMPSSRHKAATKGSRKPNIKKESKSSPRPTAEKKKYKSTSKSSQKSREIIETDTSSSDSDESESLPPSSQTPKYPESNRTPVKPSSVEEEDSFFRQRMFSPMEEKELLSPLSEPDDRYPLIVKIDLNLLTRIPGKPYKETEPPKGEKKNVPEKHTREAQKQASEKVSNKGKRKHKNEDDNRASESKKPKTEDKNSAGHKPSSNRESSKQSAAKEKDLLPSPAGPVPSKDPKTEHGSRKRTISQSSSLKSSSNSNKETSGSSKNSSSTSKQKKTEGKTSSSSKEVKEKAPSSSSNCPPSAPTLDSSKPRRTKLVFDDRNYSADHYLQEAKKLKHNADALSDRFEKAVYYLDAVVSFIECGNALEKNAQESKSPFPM

[3] = biological target: T3, FLAG-AFF4 Δ970–1,163 P329G (human) (UniProt Q9UHB7)
T3 sequence: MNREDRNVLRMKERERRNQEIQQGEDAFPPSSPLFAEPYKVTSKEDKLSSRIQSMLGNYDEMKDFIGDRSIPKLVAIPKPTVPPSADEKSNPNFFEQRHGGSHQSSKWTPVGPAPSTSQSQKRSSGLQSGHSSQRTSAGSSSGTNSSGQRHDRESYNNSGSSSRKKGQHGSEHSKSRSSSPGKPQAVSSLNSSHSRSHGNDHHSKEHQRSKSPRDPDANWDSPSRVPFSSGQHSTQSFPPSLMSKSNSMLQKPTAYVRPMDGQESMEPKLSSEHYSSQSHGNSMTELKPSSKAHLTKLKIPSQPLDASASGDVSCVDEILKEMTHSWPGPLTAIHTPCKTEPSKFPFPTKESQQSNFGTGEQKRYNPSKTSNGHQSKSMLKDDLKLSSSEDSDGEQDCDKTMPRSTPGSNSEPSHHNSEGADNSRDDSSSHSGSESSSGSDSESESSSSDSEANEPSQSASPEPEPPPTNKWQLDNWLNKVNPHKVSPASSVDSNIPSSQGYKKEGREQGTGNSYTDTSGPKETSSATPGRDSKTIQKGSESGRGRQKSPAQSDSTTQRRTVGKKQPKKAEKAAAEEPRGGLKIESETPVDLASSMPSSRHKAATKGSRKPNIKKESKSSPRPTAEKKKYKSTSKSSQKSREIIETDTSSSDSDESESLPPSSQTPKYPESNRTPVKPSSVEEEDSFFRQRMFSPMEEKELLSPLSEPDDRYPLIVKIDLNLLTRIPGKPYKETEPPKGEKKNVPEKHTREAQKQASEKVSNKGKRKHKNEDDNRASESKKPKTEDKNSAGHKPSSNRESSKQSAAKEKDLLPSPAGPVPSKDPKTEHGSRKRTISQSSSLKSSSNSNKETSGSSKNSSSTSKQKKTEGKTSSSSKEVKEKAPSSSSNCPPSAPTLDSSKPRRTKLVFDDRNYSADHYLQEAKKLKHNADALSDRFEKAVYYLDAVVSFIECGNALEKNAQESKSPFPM

[4] = biological target: HA-tagged wild-type ELL2 (human) (UniProt O00472)

B1: ELL1, endogenous (protein, UniProt P55199 1-621)
chain: MAALKEDRSYGLSCGRVSDGSKVSVFHVKLTDSALRAFESYRARQDSVSLRPSIRFQGSQGHISIPQPDCPAEARTFSFYLSNIGRDNPQGSFDCIQQYVSSHGEVHLDCLGSIQDKITVCATDDSYQKARQSMAQAEEETRSRSAIVIKAGGRYLGKKVQFRKPAPGATDAVPSRKRATPINLASAIRKSGASAVSGGSGVSQRPFRDRVLHLLALRPYRKAELLLRLQKDGLTQADKDALDGLLQQVANMSAKDGTCTLQDCMYKDVQKDWPGYSEGDQQLLKRVLVRKLCQPQSTGSLLGDPAASSPPGERGRSASPPQKRLQPPDFIDPLANKKPRISHFTQRAQPAVNGKLGVPNGREALLPTPGPPASTDTLSSSTHLPPRLEPPRAHDPLADVSNDLGHSGRDCEHGEAAAPAPTVRLGLPLLTDCAQPSRPHGSPSRSKPKKKSKKHKDKERAAEDKPRAQLPDCAPATHATPGAPADTPGLNGTCSVSSVPTSTSETPDYLLKYAAISSSEQRQSYKNDFNAEYSEYRDLHARIERITRRFTQLDAQLRQLSQGSEEYETTRGQILQEYRKIKKTNTNYSQEKHRCEYLHSKLAHIKRLIAEYDQRQLQAWP
[1]
  binding: no binding
[2]
  binding: no binding
[3]
  binding: no binding
[4]
  binding: binds
